Data from the RNAGym collection of RNA variant scans (doi:10.1093/nar/gkz1192).
Read counts are not given, so values of variants with three or more changes are uncertain.

B1: CPEB3 Ribozyme (parent)
chain: UAACAGGGGGCCACAGCAGAAGCGUUCACGUCGCAGCCCCUGUCAGAUUCUGGUGAAUCUGCGAAUUCUGCUGUAUAUCUC

Variants of: B1
Experiment: self-cleavage, relative activity (ratio to wild type); higher = more cleavage; in vitro, sequencing
Method in brief: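 CPEB3 self-cleaving ribozyme mutant libraries were made by rounds of error-prone PCR, barcoded, and transcribed in vitro with T7 RNA polymerase for 5 hours at 37°C. Cleavage occurred during transcription and a 15 min DNase I step before EDTA stop. RNAs were reverse transcribed with template switching and Illumina-sequenced, with DNA sequencing mapping barcodes to variants. Relative activity is the variant's cleaved/total read fraction divided by wild type's (minimum 5 reads), averaged across three batches.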
Variant A5U U54A U69C has a self-cleavage of 0.8.
A5U A57G U69C G70U U78C gave a self-cleavage of 0.26.
In the case of A5U G22C G70C, the self-cleavage is reported as 0.21.
Variant G6C U31A U41G A57G U67C has a self-cleavage of 0.12.
For A5U U48G U72C, the self-cleavage was 0.51.
With G6U C11U A13U A20U U58C U67C the self-cleavage was 0.03.
Work on G6A U49G U54C yielded a self-cleavage of 0.17.
For G6A A18G A20G A45G A56G A57G U80A, the self-cleavage was 0.26.
Variant A5U G6A C29U U60C has a self-cleavage of 0.09.
Variant A5U A45U U49A U51A C68A U76A has a self-cleavage of 0.06.
Work on G6U U26A U31G U78C yielded a self-cleavage of 0.13.
For G6A A13U U43C U69A, the self-cleavage was 0.12.
A5U G9U U26C U41A U80C showed a self-cleavage of 0.07.
In the case of G6A A18G A47U A57U U80A, the self-cleavage is reported as 0.05.
Variant A5U A56G U78C has a self-cleavage of 0.52.
Work on G6A G30C U66C A75G yielded a self-cleavage of 0.09.
Variant G6A U31C A45G A64G A65G U66C U80C has a self-cleavage of 0.
G6A A13U A18G U25C U31A U43G A45U showed a self-cleavage of 0.04.
In the case of A5U U25A U41C, the self-cleavage is reported as 0.37.
G6A A21G U48C U60C gave a self-cleavage of 0.38.
Work on A5U G8C A15U U69A yielded a self-cleavage of 0.38.
Work on A5U U26G C27U U41A U51C U78C yielded a self-cleavage of 0.07.
Work on A5U U54C G61A U72C U80G yielded a self-cleavage of 0.83.
G6A U31A A56G gave a self-cleavage of 0.12.
In the case of A5U U25C A35G A45G U76C, the self-cleavage is reported as 0.46.
Work on A5U A35U A64G yielded a self-cleavage of 0.62.
With A5U A56U U60C the self-cleavage was 0.26.
With A5U C12U C17U A35U G52A U58C the self-cleavage was 0.41.
Work on G6A U66C A77G yielded a self-cleavage of 0.2.
A5U C44A A64G A75U showed a self-cleavage of 0.52.
Variant G6U G8A A18G A45G A47G has a self-cleavage of 0.2.
G6A U43C U54A A56G gave a self-cleavage of 0.25.
With G6U A18C U43C A65G the self-cleavage was 0.08.
In the case of G6U A56G U78C, the self-cleavage is reported as 0.21.
G6A A28U U72A gave a self-cleavage of 0.17.
For A5U G6A A47G C50A U60C, the self-cleavage was 0.09.
Work on A5U U26A A45U U72A yielded a self-cleavage of 0.49.
G6A A47G U49A A56C U74C A75G gave a self-cleavage of 0.05.
A5U G16A U31C showed a self-cleavage of 0.4.
A5U U48A U67A showed a self-cleavage of 0.54.
For A5U U26C U60C, the self-cleavage was 0.43.
Variant G6A C27U U31C A45G U60A C62U has a self-cleavage of 0.04.
G6A A15U A28U A45C U51A C71U showed a self-cleavage of 0.03.
With G6A U58C U60C A77G the self-cleavage was 0.05.
G6U A35G U41A A56G gave a self-cleavage of 0.33.
A5U G9U C32U U43A showed a self-cleavage of 0.07.
With G6C A18G U66C U67C U69C U74C U80C the self-cleavage was 0.
For A5U U25A G33A A45G G46U U51C U58C, the self-cleavage was 0.17.
With G6A A18G A20U the self-cleavage was 0.33.
For G6A C23U G61A, the self-cleavage was 0.19.
In the case of A5U U26C A28G U31A U78G, the self-cleavage is reported as 0.11.
For A5U U51A G53C G61C U66C U69A, the self-cleavage was 0.58.
Work on G6A U43A A45G A57U C79A yielded a self-cleavage of 0.05.
Variant G6A A13U G46A U51C U60C has a self-cleavage of 0.05.
In the case of G6C U67C U80C, the self-cleavage is reported as 0.26.
With A5U C11A A18U A20G A35G A56G U80C the self-cleavage was 0.14.
In the case of G6A A13G A20G U26C U80A, the self-cleavage is reported as 0.52.
In the case of A5U G6U U72A, the self-cleavage is reported as 0.1.
For G6A U25C U48A U49C, the self-cleavage was 0.07.
Work on A5U U25C C39G U41C A64G yielded a self-cleavage of 0.09.
Work on A5U C27U C40U U74C yielded a self-cleavage of 0.19.
With G6U A20G U26C C40U A64U the self-cleavage was 0.05.
With G6A C34G A35G U66C U72C the self-cleavage was 0.18.
For G6A G73U A77C, the self-cleavage was 0.38.
For G6A A28U A65G U72C G73A, the self-cleavage was 0.07.
With A5U G8U U41A U67C U72A A77G the self-cleavage was 0.08.
With A5U C11U A15U U25C U49A the self-cleavage was 0.1.
For A5U U41C U67C U72C, the self-cleavage was 0.41.
In the case of G6A U25C C32U, the self-cleavage is reported as 0.39.
For G6U A15G U25C, the self-cleavage was 0.07.
Work on G6A G19U A20G U41A yielded a self-cleavage of 0.24.
With A5U U25A A56U the self-cleavage was 0.32.
A5U U49C U60C A64G showed a self-cleavage of 0.18.
For A5U U74A U80A, the self-cleavage was 1.29.
In the case of A5U U26G U49C G55C U69G U76C U80G, the self-cleavage is reported as 0.04.
Variant G6A A18G A65G U76C has a self-cleavage of 0.06.
G6A G10A A45U A56G gave a self-cleavage of 0.34.
Work on G6U G9A U25C U41A U58C U69C yielded a self-cleavage of 0.05.
Variant A5U U25A U51A A57G U60A has a self-cleavage of 0.12.
For A5U U25G U41C, the self-cleavage was 0.33.
Work on G6A A57G U69C yielded a self-cleavage of 0.07.
G6U A18G U49A G61A U69C showed a self-cleavage of 0.08.
Variant A5U G22A A64G has a self-cleavage of 0.53.
In the case of A5U U69C U76G, the self-cleavage is reported as 0.96.
